Screen size: about 360,000 compounds; about 2,600 (0.72%) were called active. This list was built around the results that the source calls inconclusive (neither active nor inactive); the mix of calls is not that of the screen. Calls follow the shape of the dose curve; as a rule, active = well fitted inhibition curve with a large enough effect; inconclusive = small, poorly fitted or top-dose-only effect; inactive = no such curve, though single readings can be large or run the other way. A potency beside an inconclusive call is a rough fit, not a confirmed value.
assay: Primary qHTS for Inhibitors of ATXN expression; conditions: HEK-293 ATXN2-luciferase reporter, luminescence, 24 h; activity change, negative = inhibition: at 57 µM (top of the series); also: nearly all actives have a fitted effect of over 55% in size
Procedure, shortened: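 ATXN2-luciferase reporter cells (luciferase flanked by upstream and downstream ATXN2 gene portions) were treated 24 h at 37 °C with compounds at up to 57 uM. SteadyGlo luminescence gave expression; GF-AFC fluorescence gave viability.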
% is scaled to controls: 0 for no effect and ±100 for the full control effect; potency is read from the fitted curve at half-maximal effect; tags tell the direction and shape of the fitted curve.

Row | Structure (SMILES) | activity change, negative = inhibition | Potency
1 | Cc1ccc(S(=O)(=O)Cc2ccc(C(=O)OCc3ccccc3)cc2)cc1 | inactive: -3.32% | 
2 | COCCNC(=O)c1ccc(-c2ccc(OC)cc2C)c2ccoc12 |  | inconclusive: 28.2 µM [inhibitor, single point]
3 | O=C(Nc1cccc(Cl)c1)c1ccc2c(c1)SC1=NS(=O)(=O)CCN12 |  | inconclusive: 8.91 µM [inhibitor, partial curve]
4 | COc1ccc(S(=O)(=O)N(CCCN2CCCC2=O)Cc2cc3c(C)cc(C)cc3[nH]c2=O)cc1 | inactive: -11.6% | 
5 | Cc1cc(C(=O)COC(=O)c2cccnc2Cl)c(C)n1C | inactive: -11.1% | 
6 | CCOC(=O)c1sc(NC(=O)Nc2ccc(Cl)cc2)cc1C |  | inconclusive: 39.8 µM [inhibitor, single point]
7 | Nc1c(S(=O)(=O)c2ccccc2)c2nc3ccccc3nc2n1Cc1ccco1 | inactive: -14.1% | 
8 | COc1ccc(/C(O)=C/c2nc3ccc(C(=O)NCCc4cccc(C)c4)cc3[nH]c2=O)cc1OC |  | inconclusive: 22.4 µM [inhibitor, single point]
9 | CN1C[C@@H]2C(c3ccc(Cl)nc3)C3(c4ccc(C#N)cc4)CC2(C3)[C@H]1c1ccccc1 (stereo not given in full) | inactive: -22.8% | 
10 | CCC(C)c1ccccc1NC(=O)COC(=O)c1ccc2[nH]c3c(c2c1)CCCC3 (stereo not given) |  | inconclusive: 31.6 µM [inhibitor, single point]
11 | Nc1c(C(=O)Nc2cccc(C(=O)O)c2)sc2nc3c(cc12)CCCC3 |  | active: 3.98 µM
12 | O=c1[nH]c(CCl)nc2cc(-c3ccc(F)cc3)sc12 |  | inconclusive: 20 µM [inhibitor, single point]
13 | O=C1NCCN(Cc2ccc(Cl)c(F)c2)C1CC(=O)N1CCCO1 (stereo not given) | inactive: 48.5% | 
14 | CC1CCN(c2nc3c(S(=O)(=O)c4cccc(Cl)c4)nnn3c3ccsc23)CC1 | inactive: -6.87% | 
15 | O=C(O)Cc1cccc(OCCCN(Cc2cccc(C(F)(F)F)c2Cl)CC(c2ccccc2)c2ccccc2)c1 |  | inconclusive: 30.6 µM [inhibitor, single point]
16 | Cc1ccccc1Nc1nnc(-c2ccc(C)c(S(=O)(=O)NCC3CCCO3)c2)c2ccccc12 (stereo not given) |  | inconclusive: 39.8 µM [inhibitor, single point]
17 | COc1ccc2cc3c(N)nn(C(=O)Cc4ccc(Cl)cc4)c3nc2c1 |  | inconclusive: 14.1 µM [inhibitor, partial curve, poor fit]
18 | Cc1ccc(NC(=O)N2CCC(CN3CCCCC3)CC2)c(Cl)c1 | inactive: -1.38% | 
19 | COc1ccc(CN(C)CC2CCCN(CCc3ccc(F)cc3)C2)c(OC)c1OC (stereo not given) | inconclusive: -47% [inhibitor] | 
20 | N#CC1(C#N)CC(C=O)=C(N)C1(C#N)CC(=O)C12CC3CC(CC(C3)C1)C2 (stereo not given) |  | inconclusive: 39.8 µM [inhibitor, single point]
21 | Cc1ccc(OC(F)F)c(NC(=O)Nc2cccc(C(F)(F)F)c2)c1 |  | inconclusive: 39.8 µM [inhibitor, single point]
22 | NC(=O)CC(NC(=O)Cc1ccc(Br)cc1)c1ccc(NCc2cc(F)ccc2F)c([N+](=O)[O-])c1 (stereo not given) |  | inconclusive: 39.8 µM [inhibitor, single point]
23 | Cc1noc(C)c1COc1ccc(C(=O)NNC(=O)c2ccccc2O)cc1 |  | inconclusive: 0.708 µM [inhibitor, single point]
24 | CCC(C)(C)c1ccc(OC(=O)c2cccnc2Cl)cc1 | inactive: 21% | 

Row | Structure (SMILES) | activity change, negative = inhibition | Potency
25 | Cc1ccc(C(=O)Nc2cccc(S(=O)(=O)N3CCCCC3)c2)cc1[N+](=O)[O-] |  | inconclusive: 14.1 µM [inhibitor, partial curve, poor fit]
26 | CC(C)C1CC(CCN)(c2ccccc2)CCO1 (stereo not given) | inactive: -11.6% | 
27 | COCCN1C=C(C(=O)OC)C(c2ccc3c(c2)OCO3)C(C(=O)OC)=C1 | inactive: 3.32% | 
28 | CC[C@]12c3[nH]c4ccc(OC)cc4c3CCN1C(=O)C(CC(=O)NCC13CC4CC(CC(C4)C1)C3)C[C@@H]2C(=O)N1CCN(C(=O)c2ccco2)CC1 (stereo not given in full) |  | inconclusive: 35.5 µM [inhibitor, single point]
29 | O=C1C2C3C=CC(CO)(O3)C2C(=O)N1c1ccccc1-c1ccccc1 (stereo not given) |  | inconclusive: 39.8 µM [inhibitor, single point]
30 | Cc1[nH]c2ccccc2c1C(=O)C(C)OC(=O)c1ccc([N+](=O)[O-])o1 (stereo not given) | inactive: -24.3% | 
31 | COc1ccc(NC(=O)c2cc(C)no2)cc1Cl | inactive: 7.06% | 
32 | CCOC(=O)C1(C)CCCN(C(=O)c2ccc(OC)c(OC)c2)C1 (stereo not given) | inactive: 5.79% | 
33 | O=C(Nc1ccccc1Cl)N1CCCN(c2nc(-c3ccccc3)ns2)CC1 |  | inconclusive: 15 µM [inhibitor, partial curve, poor fit]
34 | CCOc1ccc(Nc2c(S(=O)(=O)c3ccccc3)cnc3ccc(CC)cc23)cc1 |  | inconclusive: 39.8 µM [inhibitor, partial curve, poor fit]
35 | CCS(=O)(=O)Nc1ccccc1C(N)=O | inactive: -21.8% | 
36 | CCOC(=O)c1nc(NNC(=O)c2ccc([N+](=O)[O-])cc2)sc1C |  | inconclusive: 14.1 µM [inhibitor, partial curve]
37 | Cc1ccc(S(=O)(=O)c2cn(C)c3cc(N4CCN(C)CC4)c(F)cc3c2=O)c(C)c1 |  | inconclusive: 39.8 µM [inhibitor, partial curve, poor fit]
38 | CN(Cc1ccc(Cl)cc1)C(=O)CCl |  | inconclusive: 29.9 µM [inhibitor, single point]
39 | O=C(COC(=O)c1cc2ccccc2cc1O)NC(=O)NCc1ccco1 |  | inconclusive: 7.52 µM [inhibitor, single point]
40 | C/C(=N/NC(=O)c1cc(-c2ccccc2)nc2c(Cl)cccc12)c1cccnc1 |  | inconclusive: 39.8 µM [inhibitor, single point]
41 | CCC1COCCS(=O)(=O)N1Cc1cccc(Cl)c1 (stereo not given) | inactive: 2.44% | 
42 | CCCCNC(=O)CSc1nc2ccccc2nc1Cc1ccccc1 | inactive: -2.16% | 
43 | Cc1cc(O)c2c(c1)CC1C3CCC4CC(=O)CCC4(C)C3CC(=O)C21C (stereo not given) | inactive: -32.6% | 
44 | COc1ccc(-n2cc(CN(C)C(C)c3ccncn3)c(-c3cccc(F)c3)n2)cc1 (stereo not given) |  | inconclusive: 35.5 µM [inhibitor, single point]
45 | CCC(=O)Nc1cccc(NC(=S)NC(=O)c2ccccc2Cl)c1 | inactive: 29.2% | 
46 | Cc1cnc(NC(=O)Cc2ccc(Br)cc2)s1 |  | inconclusive: 4.47 µM [inhibitor, partial curve, poor fit]
47 | O=C(CCl)N=c1sccn1Cc1cccc2ccccc12 |  | active: 0.0299 µM
48 | c1ccc(N2CCN(c3ncnc4c3nc3n4CCCCC3)CC2)cc1 |  | inconclusive: 15.8 µM [inhibitor, partial curve, poor fit]

Row | Structure (SMILES) | activity change, negative = inhibition | Potency
49 | CC(=O)c1ccc(OCc2ccc(C(=O)c3ccccc3)cc2)cc1 | inactive: -12.3% | 
50 | C/C(=N\NC(=O)CN1CCN(S(=O)(=O)c2ccc(C)cc2)CC1)c1cccnc1 | inactive: -7.61% | 
51 | CC1(Cc2cc(Cl)ccc2C(F)(F)F)C(=O)Nc2cc(F)ccc21 (stereo not given) |  | inconclusive: 35.5 µM [inhibitor, single point]
52 | CC1(C)CC(=O)C(N=Nc2cccc(S(=O)(=O)N3CCOCC3)c2)=C(O)C1 |  | inconclusive: 12.6 µM [inhibitor, partial curve, poor fit]
53 | COc1ccc(Cl)cc1NC(=O)CN(C)C1CCCCC1 | inactive: -6.91% | 
54 | CSc1cccc(NC(=O)c2ccc3c(c2)CCCN3S(C)(=O)=O)c1 |  | inconclusive: 39.8 µM [inhibitor, single point]
55 | Oc1ccccc1C=NNC(=S)NN=Cc1ccccc1O |  | inconclusive: 3.98 µM [inhibitor, full curve, poor fit]
56 | CCOc1ccc(-c2cnc3n2CCC3)cc1 |  | inconclusive: 11.2 µM [inhibitor, partial curve, poor fit]
57 | COc1ccc(C(=O)c2ccc(N3CCN(C(=O)c4ccc(F)cc4)CC3)c(F)c2)cc1Br |  | inconclusive: 22.4 µM [inhibitor, partial curve, poor fit]
58 | Cc1csc2ncnc(N3CCN(C(=S)Nc4ccc(F)cc4F)CC3)c12 |  | inconclusive: 18.9 µM [inhibitor, partial curve, poor fit]
59 | CCCn1c(=N)n(CC(=O)c2ccc([N+](=O)[O-])cc2)c2ccccc21 |  | inconclusive: 21.2 µM [inhibitor, single point]
60 | O=[N+]([O-])c1nn(-c2ccc3c(c2)OCCO3)n(O)c1=NC1CCCCCC1 | inactive: 0.81% | 
61 | CCC(=O)NC(c1ccc(Cl)cc1Cl)c1ccc2cccnc2c1O (stereo not given) |  | active: 5.62 µM
62 | COc1ccc(-c2[nH]c(-c3ccccc3)nc2SCC(=O)Nc2ccc3c(c2)OCO3)cc1 |  | inconclusive: 31.6 µM [inhibitor, single point]
63 | Cc1ccc(NS(=O)(=O)c2cccc(C(=O)NCCc3c[nH]c4ccccc34)c2)c(C)c1 |  | inconclusive: 31.6 µM [inhibitor, single point]
64 | O=C(Nc1ccc(Cl)cc1)c1cc(S(=O)(=O)Nc2ccccn2)ccc1Cl | inactive: -3.26% | 
65 | Cc1ccc(/C=C/C(=O)c2ccc([N+](=O)[O-])o2)cc1 |  | inconclusive: 3.16 µM [inhibitor, single point]
66 | CCOC(=O)C(C)NC(=O)c1cc2c(=O)[nH]c3ccc(C)cc3c2s1 (stereo not given) |  | inconclusive: 20 µM [inhibitor, single point]
67 | O=C(Nc1cccc(S(=O)(=O)N2CCCCC2)c1)c1cncc(Br)c1 |  | inconclusive: 13.4 µM [inhibitor, single point]
68 | CCOC(=O)N1CCN([N+]([O-])=NOc2ccc([N+](=O)[O-])cc2C#N)CC1 | inactive: 8.18% | 
69 | COc1ccc(-c2cc(C(=O)N(C)Cc3ccccc3F)c3ccccc3n2)cc1OC | inactive: -8.95% | 
70 | COc1ccc(NC(=O)c2cccs2)cn1 | inactive: 20% | 

— PubChem BioAssay AID1745845 (National Center for Advancing Translational Sciences (NCATS), 2022)
